PubChem BioAssay AID485364 (National Center for Advancing Translational Sciences (NCATS), 2010)
The campaign covered roughly 360,000 compounds. About 11,000 (3.1%) were called active. The shares of active, inactive and inconclusive entries below differ from those in the screen. Calls follow the shape of the dose curve; as a rule, active = well fitted inhibition curve with a large enough effect; inconclusive = small, poorly fitted or top-dose-only effect; inactive = no such curve, though single readings can be large or run the other way. Potencies of inconclusive entries are left out as doubtful fits.
Also: nearly all actives have a fitted effect of over 60% in size.
Potency is read from the fitted curve at half-maximal effect; tags tell the direction and shape of the fitted curve.

The molecules below were run against Schistosoma mansoni thioredoxin glutathione reductase (TGR) (UniProt Q962Y6) (assay: qHTS Assay for the Inhibitors of Schistosoma Mansoni Peroxiredoxins). Conditions: purified TGR, DTNB reduction, TNB absorbance 405 nm; series mostly up to 114 µM.
Summary of the method: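 First, TGR (20 nM dispensed) and NADPH were mixed with compound. Second, a 15 min room-temperature incubation followed. Third, further NADPH and then DTNB were added to start the reaction. Finally, TNB absorbance was monitored kinetically.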
With `O=C(C1=C[C@@H]2[C@H]3C(=O)N(c4ccccc4Cl)C(=O)[C@H]3[C@@H](C(=O)c3ccc(Cl)cc3)N2C=C1)c1ccccc1` the Potency was active: 25.1 µM.
`O=C(/C=C/c1ccc(O)c(O)c1)NC(=O)c1ccccc1O` was tested, and the Potency was “inactive”.
`COC(=O)C1=C(C)N(Cc2ccco2)C(=O)N[C@H]1c1ccccc1` was tested, and the Potency was active: 20 µM.
With `CCN(CC)c1ccc(N=Cc2ccccc2[N+](=O)[O-])cc1` the Potency was inconclusive [inhibitor, partial curve].
For `O=C(O)CCN1C(=O)C(=C2CCCCCC2)SC1=S`, the Potency was inconclusive [inhibitor, partial curve].
For `COc1ccc(/C=C(\NC(=O)/C=C/c2ccco2)C(=O)NCCc2nc3ccccc3[nH]2)cc1`, the Potency was inconclusive [inhibitor, partial curve].
With `COC(=O)c1ccc(C2=NOC(C)(c3sc(-c4ccc(Cl)cc4)nc3C)C2)cc1` (stereo unspecified) the Potency was inconclusive [inhibitor, partial curve].
In the case of `Cc1ccc(-c2ccc(C(=O)NCc3ccccc3)o2)c2ccccc12`, the Potency was active: 39.8 µM.
For `O=c1oc2ccccc2cc1-c1nc2c(s1)CCc1ccccc1-2`, the Potency was inconclusive [inhibitor, partial curve].
`COc1ccc(NC(=O)c2sc3nc[nH]c(=O)c3c2C)cc1Cl` was tested, and the Potency was “inactive”.
For `Cc1[nH]c2ccccc2c1C(=O)CSC(=S)N(C)C1CCCCC1`, the Potency was “inactive”.
`O=C1Nc2ccccc2/C1=C/c1cnc(-c2ccccc2)[nH]1` was tested, and the Potency was “inactive”.
`CN1CCc2nc(SC(C(=O)O)c3ccccc3)c(C#N)c(-c3cccs3)c2C1` (stereo unspecified) was tested, and the Potency was active: 39.8 µM.
With `COc1cc(O)c2c(c1)OC(c1ccc(O)cc1)CC2=O` (stereo unspecified) the Potency was inconclusive [inhibitor, partial curve].
With `O=C(NC(=S)NCCC1=CCCCC1)c1cccnc1` the Potency was “inactive”.
In the case of `Brc1cc2[nH]cnc2c2ccccc12`, the Potency was inconclusive [inhibitor, single point].
With `CC(=O)c1ccc(N2CCN(S(=O)(=O)c3ccc4c5c3CC(=O)N5CC(C)S4)CC2)cc1` (stereo unspecified) the Potency was inconclusive [inhibitor, partial curve].
For `C(=N\NC(=Nc1ccccc1)c1ccccn1)/c1ccccn1`, the Potency was inconclusive [inhibitor, single point].
In the case of `O=c1[nH]c(=O)n(CCC2=CCCCC2)c(O)c1/C=N/Nc1ccccc1`, the Potency was inconclusive [inhibitor, partial curve, poor fit].
In the case of `O=C(Nc1cccc2nsnc12)c1cccs1`, the Potency was “inactive”.
With `O=C1C=C(c2ccc(-c3ccccc3)cc2)C[C@@H](c2ccc(Cl)cc2)C1` the Potency was “inactive”.
`COc1ccc(OC)c(S(=O)(=O)N2CCCC(C(=O)NCc3ccccn3)C2)c1` (stereo unspecified) was tested, and the Potency was inconclusive [inhibitor, single point].
With `Cc1ccc(CNC(=O)Cn2cnc(S(=O)(=O)N3CCCCC3)c2)o1` the Potency was “inactive”.
With `O=C(NCCCN1CCCCCC1)c1ccc(CS(=O)(=O)Cc2ccccc2F)o1` the Potency was inconclusive [inhibitor, partial curve, poor fit].
In the case of `CCCCS(=O)(=O)c1oc(-c2cccs2)nc1S(=O)(=O)c1ccccc1`, the Potency was active: 0.501 µM.
`COc1ccc(C(=O)Nc2ccc(-c3ccc(C)o3)cc2)cc1S(=O)(=O)N1CCOCC1` was tested, and the Potency was active: 50.1 µM.
With `N#Cc1ccc(C2=CC(=O)C[C@H](c3ccc(Cl)cc3)C2)cc1` the Potency was inconclusive [inhibitor, partial curve].
With `COc1ccccc1NC(=O)c1ccc(COc2ccccc2OC)o1` the Potency was “inactive”.
In the case of `C=CCN1C(=O)NC(=O)/C(=C\c2ccc(-c3ccccc3[N+](=O)[O-])o2)C1=O`, the Potency was inconclusive [inhibitor, single point].
For `NC(CSCc1cccc(Br)c1)C(=O)O` (stereo unspecified), the Potency was active: 39.8 µM.
With `N/C(=N\OC(=O)COc1ccc(Cl)cc1Br)c1ccncc1` the Potency was inconclusive [inhibitor, partial curve, poor fit].
`CCOc1ccc(S(=O)(=O)N(C)C2CCCCC2)cc1` was tested, and the Potency was inconclusive [inhibitor, full curve, poor fit].
`O=C(Nc1c2c(nn1-c1cccc(Cl)c1)CS(=O)(=O)C2)c1ccc2c(c1)OCO2` was tested, and the Potency was inconclusive [inhibitor, partial curve].
For `COc1cccc(NS(=O)(=O)c2ccc3c(c2)C2C=CCC2C(c2ccc(C(=O)O)cc2)N3)c1` (stereo unspecified), the Potency was inconclusive [inhibitor, partial curve].
With `COC(=O)CSc1nc(-c2ccccc2)cc(-c2ccco2)c1C#N` the Potency was active: 31.6 µM.
`Fc1ccc(NC(=S)Nc2ccc(Br)cc2)cc1` was tested, and the Potency was inconclusive [inhibitor, partial curve].
`Cc1ccccc1NC(=O)c1nc(S(C)(=O)=O)ncc1Cl` was tested, and the Potency was inconclusive [inhibitor, full curve].
For `COc1ccc(C2=NN(C(=O)CCC(=O)O)C(c3ccccc3F)C2)cc1` (stereo unspecified), the Potency was inconclusive [inhibitor, full curve, poor fit].
`Cc1cccc(CC(=O)Nc2sc(C(C)C)cc2C(=O)N2CCOCC2)c1` was tested, and the Potency was inconclusive [inhibitor, partial curve].
With `Cc1cc(NC(=O)C2CC2)n(-c2nc3ccccc3s2)n1` the Potency was “inactive”.
`Cc1cc(NS(=O)(=O)c2ccc(NC(=O)c3cnc(Cl)c(Cl)c3)cc2)nc(C)n1` was tested, and the Potency was “inactive”.
With `Cc1ccc(-n2nnnc2SCC(=O)N2CC(=O)Nc3ccccc32)cc1` the Potency was active: 44.7 µM.
`CCc1ccc(CN(C)CC(O)COc2cccc3ccccc23)cc1` (stereo unspecified) was tested, and the Potency was “inactive”.
`CCOc1cc(C=O)cc(N=Nc2cccc([N+](=O)[O-])c2)c1O` was tested, and the Potency was inconclusive [inhibitor, full curve, poor fit].
In the case of `Cc1c(NC(=S)NC(=O)c2ccc(-c3ccc(Cl)cc3)o2)cccc1C(=O)O`, the Potency was active: 12.6 µM.
With `CCSc1oc(-c2ccco2)nc1S(=O)(=O)c1ccccc1` the Potency was inconclusive [inhibitor, partial curve].
With `O=C(O)CCc1ccc(-c2ccccc2)n1CC(=O)Nc1cccc(C(F)(F)F)c1` the Potency was “inactive”.
`CCOC(=O)Cc1ccc(NC(=O)N2CCC(CN3CCCCCC3)CC2)cc1` was tested, and the Potency was inconclusive [inhibitor, partial curve].
For `COc1ccc([C@@H]2[C@@H]3C(=O)N(C(C)(C)C)C(=O)[C@@H]3[C@]3(Cc4ccccc4)C(=O)N(c4cccc(Br)c4)C(=O)N23)cc1`, the Potency was inconclusive [inhibitor, single point].
With `Fc1cccc(Cc2noc(CN3CCCN(C4Cc5ccccc5C4)CC3)n2)c1` the Potency was inconclusive [inhibitor, full curve].
`CC(=O)N=c1sccn1CC(=O)c1ccc([N+](=O)[O-])cc1` was tested, and the Potency was inconclusive [inhibitor, full curve, poor fit].
With `Cc1ccc(NC(=O)CCN2CCN(CCO)CC2)cc1C` the Potency was inconclusive [inhibitor, single point].
For `O=C(NCc1ccco1)C1(c2ccccc2)CCCC1`, the Potency was inconclusive [inhibitor, partial curve].
For `COc1cc(C(=O)NC(=S)Nc2ccccc2[N+](=O)[O-])cc(OC)c1OC`, the Potency was inconclusive [inhibitor, full curve].
For `O=C(CC(SCCO)c1ccc(F)cc1)c1ccco1` (stereo unspecified), the Potency was inconclusive [inhibitor, partial curve].
With `COc1cc(OC)c(NC(=O)c2cc(C)nc3c2c(C)nn3-c2ccc(C)cc2)cc1Cl` the Potency was “inactive”.
With `Cc1ccccc1Nc1c(-c2ccc(Br)o2)nc2ccc(Cl)cn12` the Potency was inconclusive [inhibitor, partial curve].
In the case of `O=C(CC(c1ccco1)S(=O)(=O)c1ccccc1)c1ccccc1` (stereo unspecified), the Potency was inconclusive [inhibitor, partial curve].
With `COC(=O)C(C)Sc1nnc(SC(C)C(=O)OC)s1` (stereo unspecified) the Potency was “inactive”.
For `CCn1c(CNc2ccc(C(=O)O)cc2)nc2ccccc21`, the Potency was inconclusive [inhibitor, single point].
`COC(=O)c1ccc(Cl)cc1NC(=O)/C=C/c1ccc(C)o1` was tested, and the Potency was active: 20 µM.
With `Cc1ccc(C)c(CNC(=O)CCn2cccn2)c1` the Potency was “inactive”.
For `CC(C)(C)[C@@H]1C=C(C(=O)N2CCN(Cc3ccccc3)CC2)O[C@H](OCCCCO)C1`, the Potency was inconclusive [inhibitor, partial curve].
In the case of `COc1ccc(OC)c(C(=O)CSc2nnnn2C)c1`, the Potency was inconclusive [inhibitor, partial curve].
For `COc1ccccc1N1C(=O)N(C(C)=O)C2C1Nc1ccccc1N2C` (stereo unspecified), the Potency was inconclusive [inhibitor, partial curve].
In the case of `Cc1cc(/C=N/NC(N)=O)c(C)n1-c1ccc(F)cc1`, the Potency was inconclusive [inhibitor, partial curve].
`Nc1[nH]c(N=NC(=O)c2ccc(F)cc2)c2ccccc12` was tested, and the Potency was “inactive”.
In the case of `C=C1/C(=C\C=C2/CCC[C@]3(C)[C@@H]([C@H](C)CCCC(C)(C)O)CC[C@@H]23)C[C@@H](O)C[C@@H]1O`, the Potency was inconclusive [inhibitor, partial curve].
In the case of `COc1cccc(-c2cn3nc(C)c(C)nc3n2)c1`, the Potency was inconclusive [inhibitor, partial curve].
With `COc1cc(CNC(C)c2ccccc2)cc(Br)c1OCc1ccc(F)cc1` (stereo unspecified) the Potency was “inactive”.
`O=C(NCCCN1CCCC1=O)c1cccc(C(F)(F)F)c1` was tested, and the Potency was inconclusive [inhibitor, single point].
